Source: the supplement of paper PMC9334596
Values joined by “and” are separate entries in the source; they are usually repeats but may differ in a detail not shown here. Equal entries are not always repeated. Over roughly 5,300 compounds, “PER2::LUC luminescence relative to vehicle control” has its median near 0.96; the highest 2% begin near 1.3. The list shows a part of the results.

System: mPer2Luc MEF
Experiment: PER2::LUC luminescence relative to vehicle control (fold of vehicle); higher = higher PER2::LUC reporter signal
Settings: 10 µM
Outline: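 The reported values are PER2::LUC luminescence as fold of vehicle control in mouse embryonic fibroblasts carrying the mPer2Luc reporter. Cells were seeded at ~3000 per well in 384-well plates in DMEM with 10% FBS at 37 °C and 5% CO2, and compounds were added at 10 μM 48 h later. ONE-Glo luminescence was read 24 h and 30 h after treatment.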

SMILES | PER2::LUC luminescence (time after treatment 24 h) | PER2::LUC luminescence (time after treatment 30 h)
C=COCC(F)(F)F | 0.954 | 0.925
Nc1nccc2c1ncn2C1C=C(CO)C(O)C1O (centres undefined) | 1.05 | 1.08
Cc1nc(N(C)C(=O)Cc2ccc(-c3ccccn3)cc2)sc1S(N)(=O)=O | 1.05 and 1 | 0.949 and 0.953
CC(=O)OCC(=O)[C@@]12OC3(CCCC3)O[C@@H]1C[C@H]1[C@@H]3CCC4=CC(=O)C=C[C@]4(C)[C@@]3(F)[C@@H](O)C[C@@]12C | 0.828 | 1.13
COc1cc(O)c(C(=O)/C=C/c2ccc(O)c(OC)c2)c(OC)c1 | 0.871 | 0.855
N=C(N/N=C/c1ccc(Cl)cc1)N/N=C/c1ccc(Cl)cc1 | 0.996 | 0.988
Cn1cc(/C=C/C(=O)c2cccc(F)c2)cc1/C=C/C(=O)NO | 1.15 | 1.01
N[C@@H](CC(=O)N1CCn2c(nnc2C(F)(F)F)C1)Cc1cc(F)c(F)cc1F | 1.02 and 0.955 | 1.01 and 0.973 and 0.925
COc1cc2c(cc1OC)Cc1cc(OC)c(OC)cc1Cc1cc(OC)c(OC)cc1C2 | 0.937 | 0.923
NC(=NC12CC3CC(CC(C3)C1)C2)Nc1ccc(I)cc1 | 1.06 | 0.918
C[C@@H]1O[C@@H](O[C@H]2[C@H](Oc3cc(O)c4c(c3)O[C@H](c3ccc(O)cc3)CC4=O)O[C@H](CO)[C@@H](O)[C@@H]2O)[C@H](O)[C@H](O)[C@H]1O | 0.964 | 0.906
O=C(Nc1ccccc1)OCC(CN1CCCCC1)OC(=O)Nc1ccccc1 (centres undefined) | 0.869 | 0.908
N=C(N)c1ccc(N=NNc2ccc(C(=N)N)cc2)cc1 | 0.881 | 0.873
COc1c(O)cc(O)cc1O | 1.05 | 0.995
CCN(CC)CC1CCCCN1CC(=O)N1c2ccccc2C(=O)Nc2cccnc21 (centres undefined) | 0.951 and 0.984 | 1.01 and 0.918
CC(C)(C)OC(=O)N[C@H]1CCCCC/C=C\[C@@H]2C[C@@]2(C(=O)NS(=O)(=O)C2CC2)NC(=O)[C@@H]2C[C@@H](OC(=O)N3Cc4cccc(F)c4C3)CN2C1=O | 1.14 | 1.17
CC1(C)C(=O)N(CCN2CCC(C(=O)c3ccc(F)cc3)CC2)c2ccccc21 | 1.08 | 0.683
CCCC(=O)Nc1ccc(OCC(O)CNC(C)C)c(C(C)=O)c1 (centres undefined) | 0.797 | 0.752
COc1ccnc2[nH]cc(C(=O)C(=O)N3CCN(C(=O)c4ccccc4)C[C@H]3C)c12 | 1.03 and 1.15 | 0.897 and 1.09
C[C@@H]1O[C@@H](OC[C@H]2O[C@@H](Oc3c(-c4ccc(O)c(O)c4)oc4cc(O)cc(O)c4c3=O)[C@H](O)[C@@H](O)[C@@H]2O)[C@H](O)[C@H](O)[C@H]1O | 1.06 and 1.09 | 1.1 and 1.05
O=C(O)CC1CCC2(CC1)CCN(c1cc(OC(F)(F)F)ccc1Cl)CC2 | 1.05 | 0.952
C[N+](C)(C)CCC(=O)c1cccc2ccccc12 | 0.943 | 1.05
